The RNAGym collection of RNA variant scans (doi:10.1073/pnas.2313332121)
This sample is rich in variants without activity.

B1: TPR 5TU (parent)
chain: GGAUCUUCUCGAUCUAACAAAAAAGACAAAUCUGCCACAAAGCUUGAGAGCAUCUUCGGAUGCAGAGGCGGCAGCCUUCGGUGGCGCGAUAGCGCCAACGUUCUCAACUAUGACACGCAAAACGCGUGCUCCGUUGAAUGGAGUUUAUCAUG

Variants of: B1
Test: polymerase ribozyme fitness, log enrichment relative to wild type (log ratio); higher = more active; in vitro selection for triplet polymerase activity
In short: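 Frozen incubation at −7 °C formed the core of a single, triplicate in vitro selection round applied to PCR-built, transcribed mutant libraries of each subunit of a heterodimeric triplet polymerase ribozyme. Extended constructs were gel-excised, captured with streptavidin beads and amplified by RT-PCR, and input and output libraries were Illumina-sequenced with a filter of ≥10 input reads and ≥1 read per output. Fitness is the logarithm of genotype enrichment relative to wild-type enrichment, with inverse-variance-weighted replicate averaging, and the logarithm is base 2.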

A39C A40G C93U A97G A107G U134G and C38U G80C C96G A106U cannot be ordered by “polymerase ribozyme fitness (log ratio)” value: no more than -4.2 for the first, no more than -4.2 for the second.

A39C C57U C76A G80A C85G and A39C G46A G84A C99U C123U U135C cannot be ordered by “polymerase ribozyme fitness (log ratio)” value: no more than -4.2 for the first, no more than -4.2 for the second.

A39G G42A C57U C69U C72G U77C G92U C103U and A39C A41C G65A C96A C103A U111G cannot be ordered by “polymerase ribozyme fitness (log ratio)” value: no more than -4.2 for the first, no more than -4.2 for the second.

A40C C51A A52C C57U G65U U77C G94U G112A and A39G U56G C69U C103G U130G cannot be ordered by “polymerase ribozyme fitness (log ratio)” value: no more than -4.2 for the first, no more than -4.2 for the second.

Going from A39C U45A C85A A91U A98G to A39C C85U C149U, the “polymerase ribozyme fitness (log ratio)” value rises from no more than -4.2 to -2.98.

First: A39C U44A A66G C69G C114U U135C
Second: C38U G58A U61A U134C
The “polymerase ribozyme fitness (log ratio)” value of the first is lower: no more than -4.2 for the first, -1.57 for the second.

A39C G59A C85A G86U U134C and A39U U45G U90A A91C C93U C105G cannot be ordered by “polymerase ribozyme fitness (log ratio)” value: no more than -4.2 for the first, no more than -4.2 for the second.

A40C A49C C95A C99U C105U C108G and A39U G48C G50A G58C G68A C87G A107C A137C A150C cannot be ordered by “polymerase ribozyme fitness (log ratio)” value: no more than -4.2 for the first, no more than -4.2 for the second.

Going from A39G C76A A150C to C38U G59A A60C, the “polymerase ribozyme fitness (log ratio)” value rises from no more than -4.2 to -1.48.

A39G G80A G126U A138G and A39G G42C C43G G50C C85U A89C A115G C132G U146C U148G cannot be ordered by “polymerase ribozyme fitness (log ratio)” value: no more than -4.2 for the first, no more than -4.2 for the second.

Going from A39U A52G G74U U90A A122G C125G C129U to A39U U56A C93U, the “polymerase ribozyme fitness (log ratio)” value rises from no more than -4.2 to -3.55.

A39U C57A G100U and A39C C79A C93U U102A cannot be ordered by “polymerase ribozyme fitness (log ratio)” value: no more than -4.2 for the first, no more than -4.2 for the second.

A39G G42A G88C and C38U G92A G141U U148C cannot be ordered by “polymerase ribozyme fitness (log ratio)” value: no more than -4.2 for the first, no more than -4.2 for the second.

A39G G50C C54A C76U C87A G88C and A39U A122C U127G G140C cannot be ordered by “polymerase ribozyme fitness (log ratio)” value: no more than -4.2 for the first, no more than -4.2 for the second.

A39G A49U U55A U56A A91U and A40C A52C G81A G83A C93G cannot be ordered by “polymerase ribozyme fitness (log ratio)” value: no more than -4.2 for the first, no more than -4.2 for the second.

A40C A41U U78C G80A C85U U145C and C38U G86U A91U G126U U134G A142G cannot be ordered by “polymerase ribozyme fitness (log ratio)” value: no more than -4.2 for the first, no more than -4.2 for the second.

A39U C54U G74U C93G G100A C105G and C38U U44C G65C G68U A122C G136C cannot be ordered by “polymerase ribozyme fitness (log ratio)” value: no more than -4.2 for the first, no more than -4.2 for the second.

Going from A39G U55A C96A A97U to A39U C103G, the “polymerase ribozyme fitness (log ratio)” value falls from -3.27 to -4.14.

C38U G74A C76G U82C C85G and A39C A60U C93G A106U C125U cannot be ordered by “polymerase ribozyme fitness (log ratio)” value: no more than -4.2 for the first, no more than -4.2 for the second.

A39C A97U G133A U134A and A39U G74U G81C A91U A98G C99U G124A cannot be ordered by “polymerase ribozyme fitness (log ratio)” value: no more than -4.2 for the first, no more than -4.2 for the second.

C38U G92A C99A U127C and C38U G86U G88C C99A cannot be ordered by “polymerase ribozyme fitness (log ratio)” value: no more than -4.2 for the first, no more than -4.2 for the second.

A39C U55G G67C U78G G83U C93A U102A A121C and A39C U53A G86C A142G cannot be ordered by “polymerase ribozyme fitness (log ratio)” value: no more than -4.2 for the first, no more than -4.2 for the second.

A39U A40C A52U C72G C87U U104G C118U A122G and A39C G68A G80C G92C cannot be ordered by “polymerase ribozyme fitness (log ratio)” value: no more than -4.2 for the first, no more than -4.2 for the second.

A39U U45G C93G G100C A120U and A39U A52U C76G G83A cannot be ordered by “polymerase ribozyme fitness (log ratio)” value: no more than -4.2 for the first, no more than -4.2 for the second.

A39G A52G G68C C79U G152U and A39G U61A G71A C93G G143U U145A cannot be ordered by “polymerase ribozyme fitness (log ratio)” value: no more than -4.2 for the first, no more than -4.2 for the second.

A39U A52U C54A U55A A60G U135A U151G and A39C A91C A137G cannot be ordered by “polymerase ribozyme fitness (log ratio)” value: no more than -4.2 for the first, no more than -4.2 for the second.

First: A39U C118U
Second: A39G A41U C85A U90G A98G C129A
The “polymerase ribozyme fitness (log ratio)” value of the first is higher: -2.03 for the first, no more than -4.2 for the second.

A39G G42C A64U G84C C85U C103G C108U G117C and A40C A66U C95A G140U U148A G152U cannot be ordered by “polymerase ribozyme fitness (log ratio)” value: no more than -4.2 for the first, no more than -4.2 for the second.

Compared with C38U U55A C85U, A39G C75G A89U G92C C103A A142U is lower in “polymerase ribozyme fitness (log ratio)” value: -0.272 for the first, no more than -4.2 for the second.

Compared with A39C G141U, C38U U44A A47U G67C C69U G84A is lower in “polymerase ribozyme fitness (log ratio)” value: -2.91 for the first, no more than -4.2 for the second.

Compared with A40C A66U G84A G133U G143C, C38U G83U C123U U148C is higher in “polymerase ribozyme fitness (log ratio)” value: no more than -4.2 for the first, -2.21 for the second.

A39G G46A C63A C85G U134A and A39U A49C U55A C87U C116G cannot be ordered by “polymerase ribozyme fitness (log ratio)” value: no more than -4.2 for the first, no more than -4.2 for the second.

Going from A39U C76A G83U C125U to A40C A119C, the “polymerase ribozyme fitness (log ratio)” value rises from no more than -4.2 to 0.851.

C38U U55G U56A C72A G92C C125A U144A and A40C A49U G92U A106G G140C cannot be ordered by “polymerase ribozyme fitness (log ratio)” value: no more than -4.2 for the first, no more than -4.2 for the second.

Compared with A39U A60G A137U, A39C G86C C87U G126U is lower in “polymerase ribozyme fitness (log ratio)” value: -4.19 for the first, no more than -4.2 for the second.

A40C A52U A60U C93G A150U and A40C A73G C87G C96A C118U A138C cannot be ordered by “polymerase ribozyme fitness (log ratio)” value: no more than -4.2 for the first, no more than -4.2 for the second.

A39C U61A G84U U90C and A39U G50A C85U A89G C114G G124U A150C cannot be ordered by “polymerase ribozyme fitness (log ratio)” value: no more than -4.2 for the first, no more than -4.2 for the second.

Going from A39C G126C A137G G143C to C38U G83C, the “polymerase ribozyme fitness (log ratio)” value rises from no more than -4.2 to -0.262.

A40C A47C A60C G71U A91C C93U and A39C C75U G81A C96U A97G U101A G141C cannot be ordered by “polymerase ribozyme fitness (log ratio)” value: no more than -4.2 for the first, no more than -4.2 for the second.

Going from A39G G83A G117U A120C G152U to A39C C75A C114A C118U, the “polymerase ribozyme fitness (log ratio)” value falls from -4.11 to no more than -4.2.

A39U C51U A97C C105U U144G U145G and A39G A52U U56A C75U U78G U104A U144C cannot be ordered by “polymerase ribozyme fitness (log ratio)” value: no more than -4.2 for the first, no more than -4.2 for the second.

With A39C A91U G92A U139G the “polymerase ribozyme fitness (log ratio)” value was no more than -4.2.
